Out of some 5,400 compounds screened, about 190 (3.5%) showed an effect of 50% or more. The list shows a part of the results.
Test system: Vero-E6
Experiment: primary screen, phospholipidosis by LipidTOX staining; higher = more effect of the substance
Conditions: 10 µM
Method in brief: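 Drug-induced phospholipidosis detected with HCS LipidTOX Red reagent in Vero-E6 cells. Compounds tested at 10 μM, with amiodarone (10 μM) as positive control and DMSO (0.1 v/v %) as vehicle.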

Compound	result_ITMP [%]
CCc1nc2ccc(Cl)cn2c1C(=O)NCc1ccc(N2CCC(c3ccc(OC(F)(F)F)cc3)CC2)cc1	0.2
N=C(N)NC(=N)Nc1ccccc1	-1.65
Cc1cc2c(N3CCCC3)nc(N3CCCC3)nc2n1C	-3.77
NCCNC(=O)c1ccc(Cl)cn1	-5.66
O=C(Nc1ccc(Cl)nc1)c1ccc(Cl)cc1	-6.45
Cc1ccc2c(Br)cc(Br)c(OC(=O)c3ccccc3)c2n1	-2.36
Cc1cccc(C(=O)O)c1O	-3.56
O=C(Nc1ccccc1)Nc1ccc(-c2ccc(C(=O)[C@@H]3CCC[C@H]3C(=O)O)cc2)cc1 [R4A_0000400_001 / SPE_K81614372]	-1.59
Cn1cc(C(=O)[C@@H]2CCc3nc[nH]c3C2)c2ccccc21	17.9
Cc1ncc(CNC(=O)N(CCCl)N=O)c(N)n1	-2.5
Cn1cc(/C=C2/C(=O)Nc3cccnc32)c2ccccc21	2.75
Oc1cccc(-c2c3nc(c(-c4cccc(O)c4)c4ccc([nH]4)c(-c4cccc(O)c4)c4nc(c(-c5cccc(O)c5)c5ccc2[nH]5)CC4)C=C3)c1	-2.2
Cn1nnc(-c2ccc(-c3ccc(N4C[C@H](COP(=O)(O)O)OC4=O)cc3F)cn2)n1	0.02
CC(C)NC[C@@H](O)COc1cccc2ccccc12 [R4A_0000150_002 / SPE_K92830582]	18.8
Cc1nc(Nc2cnn(C3CCNCC3)c2)nc2c1N(C)C(=O)c1cc3ccccc3cc1N2C	103
OCCOCCN1CCN(C2=Nc3ccccc3Sc3ccccc32)CC1	22.1
CC(C)N1Cc2cc(S(C)(=O)=O)ccc2N(CCN2CC=C(c3c[nH]c4cc(F)ccc34)CC2)S1(=O)=O	31.4
O=C(c1c2ccccc2cc2ccccc12)N1CCC(N2CCC[C@@H](C(=O)N3CCOCC3)C2)CC1	4.89
COc1cccc2c1C(=O)c1c(O)c3c(c(O)c1C2=O)C[C@@](O)(C(=O)CO)C[C@@H]3O[C@H]1C[C@H](N)[C@H](O)[C@H](C)O1	-5.89
Cn1cnc2c(NCc3ccccc3)nc(NCCO)nc21	-1.91
Cc1cc(C(=O)NOCCO)c(Nc2ccc(I)cc2F)n(C)c1=O	12
CCOC(=O)C1=C(N)Oc2ccc(Br)cc2[C@H]1[C@H](C#N)C(=O)OCC	-5.02
CC1(C)S[C@@H]2[C@H](NC(=O)[C@H](N)c3ccc(O)cc3)C(=O)N2[C@H]1C(=O)O	-0.12
O=C(NC1CCNCC1)[C@@H]1CC[C@@H]2CN1C(=O)N2OS(=O)(=O)O	-2.11
CC(C)(N)c1cc(C(=O)N[C@@H]2CCc3ccc(OC4=C5CCC(=O)N=C5NC=C4)cc3C2)cc(C(F)(F)F)c1	28.9
CC(C)Cc1ccc(C(C)C(=O)NCCO)cc1 (stereo not drawn)	-2.07
N#Cc1c(O)c2c(-c3ccc(-c4ccccc4O)cc3)csc2[nH]c1=O	-2.22

Compound	result_ITMP [%]
Cc1nc2ccc(-n3ncc(C(=O)c4cc5ccccc5[nH]4)c3N)cc2[nH]1	-0.81
CCCCC(=O)O[C@H]1CC[C@H]2[C@@H]3CCc4cc(O)ccc4[C@H]3CC[C@]12C	-1.47
O=C(OC[C@H]1O[C@@H](OC(=O)c2cc(O)c(O)c(OC(=O)c3cc(O)c(O)c(O)c3)c2)[C@H](OC(=O)c2cc(O)c(O)c(OC(=O)c3cc(O)c(O)c(O)c3)c2)[C@@H](OC(=O)c2cc(O)c(O)c(OC(=O)c3cc(O)c(O)c(O)c3)c2)[C@@H]1OC(=O)c1cc(O)c(O)c(OC(=O)c2cc(O)c(O)c(O)c2)c1)c1cc(O)c(O)c(OC(=O)c2cc(O)c(O)c(O)c2)c1	-8.08
N=C(N)c1ccc(OCCCCCOc2ccc(C(=N)N)cc2)cc1	1.76
O=c1[nH]ccc2cc(OC3CCNCC3)ccc12	-2.35
Cn1c(NCCN(CCO)CCCc2ccc([N+](=O)[O-])cc2)cc(=O)n(C)c1=O	2.68
N=C(N)SCCc1ccc(OCc2ccc([N+](=O)[O-])cc2)cc1	70
Cc1[nH]c2ccccc2c1CCNC(=O)c1cccs1	2.62
O=c1cc(-c2cccc3c2Sc2ccccc2S3)oc(N2CCOCC2)c1	-4.96
c1ccc(CNCc2ccc(CN3CCCNCCNCCCNCC3)cc2)nc1	-2
C[C@H](c1ccc2ccc(O[C@H]3CC[C@@H](C(F)(F)F)CC3)c(C(F)(F)F)c2c1)N1C2CCC1CC(C(=O)O)C2 (stereo partly drawn)	-0.12
CCOC(=O)c1c(/C(C#N)=C\N)c2ccc(Cl)c(Cl)c2n1C	-1.98
Fc1ccc(C(c2ccc(F)cc2)N2CCN(C/C=C/c3ccccc3)CC2)cc1	5.83
Oc1ccc([C@H]2COc3cc(O)ccc3C2)cc1	-8.37
CN1CCc2c(c3ccccc3n2Cc2ccccc2)C1	37.2
Cc1ccc(Nc2c(F)cccc2Cl)c(CC(=O)O)c1	-3.27
O=C(O)c1cc(O)c2c(c1)C(=O)c1cccc(O)c1C2=O	-2.48
CCc1ccc(C2=CC(C)(C)Sc3ccc(C#Cc4ccc(C(=O)O)cc4)cc32)cc1	-2.18
CCC[C@@H]1CC(=O)N([C@@H](CC)C(N)=O)C1	-1.91
Cc1ccc(C(=O)c2ccc(CC(=O)[O-])n2C)cc1	-3.18
CC1(C)CC(Oc2ccc(-c3ccc(-c4cn[nH]c4)cc3O)nn2)CC(C)(C)N1	3.38
Cc1cc(/C=C/C#N)cc(C)c1Nc1ccnc(Nc2ccc(C#N)cc2)n1	19.1
Oc1c(Cl)cc(Cl)c(Cl)c1Cc1c(O)c(Cl)cc(Cl)c1Cl	-0.2
Cc1c(N(C)C)c(=O)n(-c2ccccc2)n1C	-4.65
C[C@]12CC[C@H](O)C[C@H]1CC[C@@H]1[C@@H]2CC[C@]2(C)[C@@H](c3ccc(=O)oc3)C[C@H]3O[C@]132	-2.23
CCOc1cc2ncc(C#N)c(Nc3ccc(F)c(Cl)c3)c2cc1NC(=O)/C=C/CN(C)C	73.9
CC(C)c1nc(N(C)S(C)(=O)=O)nc(-c2ccc(F)cc2)c1/C=C/[C@@H](O)C[C@@H](O)CC(=O)[O-]	-8.19
